Data from a compilation of properties of binary mixtures (doi:10.1021/je4007986).
Several values for one entry are separate records, joined by “and”; a condition that tells them apart may be missing. Equal values may be shown once. The densities may have been worked out from excess volumes.

Experiment: xn = mol fraction of the nth substance listed
Details: 298.15 K, 101 kPa

With `CCCCCCCCn1cc[n+](C)c1.[Cl-]` + O the mass density (x1 = 0.005) was 998.7 kg/m3, the mass density (x1 = 0.0058) was 998.8 kg/m3 and the mass density (x1 = 0.0066) was 999 kg/m3. For the same molecule, the mass density (x1 = 0.0074) was 999.1 kg/m3.

In the case of `CCCCCC[n+]1ccn(C)c1.[Cl-]` + O, the mass density (x1 = 0.003) is reported as 998.7 kg/m3, the mass density (x1 = 0.0031) is reported as 998.9 kg/m3 and the mass density (x1 = 0.004) is reported as 999.2 kg/m3. For the same molecule, the mass density (x1 = 0.0047) was 999.8 kg/m3, the mass density (x1 = 0.005) was 999.8 kg/m3 and the mass density (x1 = 0.0061) was 1000.2 kg/m3. For the same molecule, the mass density (x1 = 0.0082) was 1001.7 kg/m3, the mass density (x1 = 0.0083) was 1001.6 kg/m3 and the mass density (x1 = 0.0094) was 1002.2 kg/m3. It also gave a mass density (x1 = 0.01) of 1002.5 kg/m3, a mass density (x1 = 0.0106) of 1002.9 kg/m3 and a mass density (x1 = 0.0158) of 1005.6 kg/m3. For the same molecule, the mass density (x1 = 0.0178) was 1006.6 kg/m3.

In the case of `CCCC[n+]1ccn(C)c1.[Cl-]` + O, the mass density (x1 = 0.0012) is reported as 998 kg/m3, the mass density (x1 = 0.0022) is reported as 998.6 kg/m3 and the mass density (x1 = 0.0092) is reported as 1003.6 kg/m3. The mass density (x1 = 0.0093) was 1003.5 kg/m3, the mass density (x1 = 0.0106) was 1004.4 kg/m3 and the mass density (x1 = 0.0136) was 1006.7 kg/m3.

With `CC[n+]1ccn(C)c1.[Cl-]` + O the mass density (x1 = 0.0015) was 998.4 kg/m3 and 998.5 kg/m3, the mass density (x1 = 0.0029) was 999.9 kg/m3 and the mass density (x1 = 0.0076) was 1004 kg/m3. For the same molecule, the mass density (x1 = 0.0078) was 1003.8 kg/m3, the mass density (x1 = 0.0093) was 1005.5 kg/m3 and the mass density (x1 = 0.0095) was 1005.3 kg/m3. For the same molecule, the mass density (x1 = 0.0112) was 1006.6 kg/m3, the mass density (x1 = 0.0126) was 1008.1 kg/m3 and the mass density (x1 = 0.0129) was 1008.2 kg/m3. The mass density (x1 = 0.0144) was 1009.8 kg/m3, the mass density (x1 = 0.0147) was 1009.7 kg/m3 and the mass density (x1 = 0.016) was 1011 kg/m3. It also gave a mass density (x1 = 0.0166) of 1011.2 kg/m3.
